Assay results published in PMC3584131.
Results are given in words; binding and its absence hold for the method and conditions named. Binding seen in cells or lysates may run through a third protein. Some results given as binding are weak or reduced against the parent protein; the word gives no strength. For some assays here: Sequences can lack the tags named with a protein. One block for each binder: values may come before it.

Tests used:
[1] = molecular target: endogenous Numb (CD133+/CD49f+ murine liver TISCs) (mouse (endogenous in murine TISCs)) (UniProt Q9QZS3); experiment: co-IP; cytoplasmic lysates of transfected murine TISCs; immunoprecipitation with anti-Numb agarose or anti-myc antibody, 4°C; five washes in Buffer W (300 mM NaCl, 0.5% triton X-100); immunoblot
[2] = molecular target: endogenous Numb (PIL-4 hepatoblasts) (UniProt Q9QZS3); experiment: co-IP; endogenous, untagged proteins in lysates of PIL-4 hepatoblasts or HeLa cells; reciprocal immunoprecipitation with TBC1D15 antibody or anti-Numb agarose; immunoblot
Flag-p53 (human) = Flag-p53 (human) (UniProt P04637); experiment: co-IP; cytoplasmic lysates of transfected HEK-293A cells; immunoprecipitation with anti-Flag antibody, anti-Numb agarose or anti-myc agarose; washes in Buffer W (300 mM NaCl, 0.5% triton X-100); immunoblot
[3] = molecular target: T1, endogenous Numb (HEK-293A cells) (human (endogenous in HEK-293A)) (UniProt P49757); experiment: as above
T1 sequence: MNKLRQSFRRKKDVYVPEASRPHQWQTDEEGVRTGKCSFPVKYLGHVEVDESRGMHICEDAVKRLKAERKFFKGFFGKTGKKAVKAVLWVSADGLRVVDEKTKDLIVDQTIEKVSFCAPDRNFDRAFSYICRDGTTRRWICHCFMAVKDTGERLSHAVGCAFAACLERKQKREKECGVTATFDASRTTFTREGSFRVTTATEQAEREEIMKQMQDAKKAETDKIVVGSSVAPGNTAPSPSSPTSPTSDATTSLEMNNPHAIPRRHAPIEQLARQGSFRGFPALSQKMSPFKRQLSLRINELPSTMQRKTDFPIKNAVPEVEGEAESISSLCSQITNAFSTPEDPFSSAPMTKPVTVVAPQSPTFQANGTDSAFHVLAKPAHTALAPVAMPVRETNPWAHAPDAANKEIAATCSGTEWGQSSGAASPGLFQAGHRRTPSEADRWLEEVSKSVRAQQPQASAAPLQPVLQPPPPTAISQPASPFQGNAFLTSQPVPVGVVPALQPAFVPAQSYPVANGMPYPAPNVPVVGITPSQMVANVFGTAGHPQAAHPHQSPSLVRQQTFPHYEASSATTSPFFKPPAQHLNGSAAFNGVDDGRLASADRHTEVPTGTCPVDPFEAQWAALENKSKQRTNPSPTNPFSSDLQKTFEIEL

[4] = molecular target: T2, endogenous Numb (HeLa cells) (human (endogenous in HeLa)) (UniProt P49757); experiment: co-IP; endogenous, untagged proteins in lysates of PIL-4 hepatoblasts or HeLa cells; reciprocal immunoprecipitation with TBC1D15 antibody or anti-Numb agarose; immunoblot
T2 sequence: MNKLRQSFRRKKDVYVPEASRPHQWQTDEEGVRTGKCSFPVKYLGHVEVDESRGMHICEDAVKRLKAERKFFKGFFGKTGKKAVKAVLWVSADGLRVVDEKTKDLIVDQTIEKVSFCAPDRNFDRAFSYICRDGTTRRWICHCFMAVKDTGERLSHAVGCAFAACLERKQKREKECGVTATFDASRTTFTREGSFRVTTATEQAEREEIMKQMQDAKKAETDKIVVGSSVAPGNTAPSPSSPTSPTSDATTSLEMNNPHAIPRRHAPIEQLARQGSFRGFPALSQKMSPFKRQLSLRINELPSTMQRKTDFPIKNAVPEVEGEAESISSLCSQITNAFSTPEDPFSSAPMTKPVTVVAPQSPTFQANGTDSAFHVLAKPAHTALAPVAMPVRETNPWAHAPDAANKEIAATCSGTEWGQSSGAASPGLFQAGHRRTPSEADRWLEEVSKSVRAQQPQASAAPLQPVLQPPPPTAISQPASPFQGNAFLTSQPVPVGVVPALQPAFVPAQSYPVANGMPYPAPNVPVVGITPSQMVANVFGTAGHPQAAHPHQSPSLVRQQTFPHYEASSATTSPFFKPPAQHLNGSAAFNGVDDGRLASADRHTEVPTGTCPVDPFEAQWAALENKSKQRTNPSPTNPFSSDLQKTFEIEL

B2: endogenous TBC1D15 (PIL-4 hepatoblasts) (protein, UniProt Q9CXF4 1-671)
chain: MAAAGVVSGKIIYEQEGVYIHSSCGKANDQDSLISGILRVLEKDAEVIVDWRPLDDALDSSSILCAGKDSSSVVEWTQAPKERAHRGSDQQSSYEAEWDMVTTVSFKKKPHTNGDAPGHRNGKSKWSFLFSLADLKSVKQSKEGMGWSYLVFCLKDDVMLPALHFHQGDSKLLIESLEKYVVLCESPQDSRTLLVNCQNKSLSQSFENLLDEPAYGLIQKIKKDPYTATMVGFSKVTNYIFDSLRGSDPSTHQRPPSEMADFLSDAIPGLKINQQEEPGFEVITRIDLGERPVVQRREPVSLEEWNKSLDPEGRLVAVESMKQKIFRGGLSHSLRKQAWKFLLGYFPWDSTKEERTQLQKQKTDEYFRMKLQWKSVSEAQEKRNSRLRDYRSLIEKDVNRTDRTNKFYEGQDNPGLILLHDILMTYCMYDFDLGYVQGMSDLLSPLLYVMENEVDAFWCFASYMDQMHQNFEEQMQGMKTQLIQLSTLLRLLDSGFCSYLESQDSGYLYFCFRWLLIRFKREFSFLDILRLWEVMWTELPCKNFHLLLCCAILESEKQQIMAKHYGFNEILKHINELSMKIDVEDILCKAEAISLQMAQCKELPQAVCEILGLQDSEITTPDSDTDENVGSPCPVSAFPSSTLPILAASEAKDDSPTQTLASPNACRLTPA
- binding [2]: binds

B4: GFP-TBC-N1 (domain or fragment, UniProt Q9CXF4 2-158)
chain: AAAGVVSGKIIYEQEGVYIHSSCGKANDQDSLISGILRVLEKDAEVIVDWRPLDDALDSSSILCAGKDSSSVVEWTQAPKERAHRGSDQQSSYEAEWDMVTTVSFKKKPHTNGDAPGHRNGKSKWSFLFSLADLKSVKQSKEGMGWSYLVFCLKDDV
- binding [3]: binds

B5: endogenous TBC1D15 (HeLa cells) (protein, UniProt Q8TC07 1-691)
chain: MAAAGVVSGKIIYEQEGVYIHSSCGKTNDQDGLISGILRVLEKDAEVIVDWRPLDDALDSSSILYARKDSSSVVEWTQAPKERGHRGSEHLNSYEAEWDMVNTVSFKRKPHTNGDAPSHRNGKSKWSFLFSLTDLKSIKQNKEGMGWSYLVFCLKDDVVLPALHFHQGDSKLLIESLEKYVVLCESPQDKRTLLVNCQNKSLSQSFENLLDEPAYGLIQAGLLDRRKLLWAIHHWKKIKKDPYTATMIGFSKVTNYIFDSLRGSDPSTHQRPPSEMADFLSDAIPGLKINQQEEPGFEVITRIDLGERPVVQRREPVSLEEWTKNIDSEGRILNVDNMKQMIFRGGLSHALRKQAWKFLLGYFPWDSTKEERTQLQKQKTDEYFRMKLQWKSISQEQEKRNSRLRDYRSLIEKDVNRTDRTNKFYEGQDNPGLILLHDILMTYCMYDFDLGYVQGMSDLLSPLLYVMENEVDAFWCFASYMDQMHQNFEEQMQGMKTQLIQLSTLLRLLDSGFCSYLESQDSGYLYFCFRWLLIRFKREFSFLDILRLWEVMWTELPCTNFHLLLCCAILESEKQQIMEKHYGFNEILKHINELSMKIDVEDILCKAEAISLQMVKCKELPQAVCEILGLQGSEVTTPDSDVGEDENVVMTPCPTSAFQSNALPTLSASGARNDSPTQIPVSSDVCRLTPA
- binding [4]: binds

Now from value to binder:

- binding [1]: binds
B1: myc-TBC1D15 (expressed in TISCs) (protein, UniProt Q9CXF4 1-671)
chain: MAAAGVVSGKIIYEQEGVYIHSSCGKANDQDSLISGILRVLEKDAEVIVDWRPLDDALDSSSILCAGKDSSSVVEWTQAPKERAHRGSDQQSSYEAEWDMVTTVSFKKKPHTNGDAPGHRNGKSKWSFLFSLADLKSVKQSKEGMGWSYLVFCLKDDVMLPALHFHQGDSKLLIESLEKYVVLCESPQDSRTLLVNCQNKSLSQSFENLLDEPAYGLIQKIKKDPYTATMVGFSKVTNYIFDSLRGSDPSTHQRPPSEMADFLSDAIPGLKINQQEEPGFEVITRIDLGERPVVQRREPVSLEEWNKSLDPEGRLVAVESMKQKIFRGGLSHSLRKQAWKFLLGYFPWDSTKEERTQLQKQKTDEYFRMKLQWKSVSEAQEKRNSRLRDYRSLIEKDVNRTDRTNKFYEGQDNPGLILLHDILMTYCMYDFDLGYVQGMSDLLSPLLYVMENEVDAFWCFASYMDQMHQNFEEQMQGMKTQLIQLSTLLRLLDSGFCSYLESQDSGYLYFCFRWLLIRFKREFSFLDILRLWEVMWTELPCKNFHLLLCCAILESEKQQIMAKHYGFNEILKHINELSMKIDVEDILCKAEAISLQMAQCKELPQAVCEILGLQDSEITTPDSDTDENVGSPCPVSAFPSSTLPILAASEAKDDSPTQTLASPNACRLTPA

- binding (Flag-p53 (human)): no binding
B3: myc-TBC1D15 (expressed in HEK-293A cells) (protein, UniProt Q9CXF4 1-671)
chain: MAAAGVVSGKIIYEQEGVYIHSSCGKANDQDSLISGILRVLEKDAEVIVDWRPLDDALDSSSILCAGKDSSSVVEWTQAPKERAHRGSDQQSSYEAEWDMVTTVSFKKKPHTNGDAPGHRNGKSKWSFLFSLADLKSVKQSKEGMGWSYLVFCLKDDVMLPALHFHQGDSKLLIESLEKYVVLCESPQDSRTLLVNCQNKSLSQSFENLLDEPAYGLIQKIKKDPYTATMVGFSKVTNYIFDSLRGSDPSTHQRPPSEMADFLSDAIPGLKINQQEEPGFEVITRIDLGERPVVQRREPVSLEEWNKSLDPEGRLVAVESMKQKIFRGGLSHSLRKQAWKFLLGYFPWDSTKEERTQLQKQKTDEYFRMKLQWKSVSEAQEKRNSRLRDYRSLIEKDVNRTDRTNKFYEGQDNPGLILLHDILMTYCMYDFDLGYVQGMSDLLSPLLYVMENEVDAFWCFASYMDQMHQNFEEQMQGMKTQLIQLSTLLRLLDSGFCSYLESQDSGYLYFCFRWLLIRFKREFSFLDILRLWEVMWTELPCKNFHLLLCCAILESEKQQIMAKHYGFNEILKHINELSMKIDVEDILCKAEAISLQMAQCKELPQAVCEILGLQDSEITTPDSDTDENVGSPCPVSAFPSSTLPILAASEAKDDSPTQTLASPNACRLTPA
